Displacement data for 108 compounds are collected here from PubChem BioAssay AID1240 (Sanford-Burnham Center for Chemical Genomics, 2008).

Among all 50,000 compounds or so, about 800 (1.6%) showed an effect of 50% or more. This is one part of the list.

The experiment deals with Bcl-2-like protein 10 (Homo sapiens) (UniProt Q9HD36). Put plainly: TR3 peptide-Bcl-B binding displacers, biochemical primary FP assay, phenotype converters (AID 1240).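 Further: 0% = Bcl-B with tracer peptide and DMSO and 100% = tracer peptide lacking Bcl-B.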 Particulars: GST-Bcl-B / FITC-TR3 peptide fluorescence polarization; stronger effect = higher value; compound at 3.75 mg/L. A general note: Polarisation of emitted light reports the rotation of a fluorescent probe.
UniProt Q9HD36, sequence (Q9HD36 whole entry, looked up): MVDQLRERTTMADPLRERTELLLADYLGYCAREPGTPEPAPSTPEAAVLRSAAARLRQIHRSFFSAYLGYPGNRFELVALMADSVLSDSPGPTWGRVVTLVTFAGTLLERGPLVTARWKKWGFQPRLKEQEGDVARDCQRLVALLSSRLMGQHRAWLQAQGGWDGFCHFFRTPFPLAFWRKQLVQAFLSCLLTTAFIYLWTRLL
`COc1ccccc1-c1c(C(F)(F)F)oc2c(CN3CCOCC3)c(O)ccc2c1=O`: the displacement turned out to be 7%.
Then `COc1ccc(/C=N/NC(=O)C(C)Nc2ccc(Cl)cc2)c(OC)c1` (stereo not drawn), with 15.4%; and `O=C(Cn1cc(/C=C2\SC(=S)NC2=O)c2ccccc21)Nc1ccccc1`, with -11.9%; and `COc1ccc(N(CC(=O)Nc2cc(Cl)cc(Cl)c2)S(=O)(=O)c2ccccc2)cc1`, with 9.7%.
To `COc1ccc(C2C(C#N)=C(N)Oc3[nH]c(=O)[nH]c(=O)c32)c(OC)c1` (stereo not drawn) belongs -1.8%.
To `CCOC(=O)c1c(NC(=O)Cc2ccc(Cl)cc2)sc(C(=O)Nc2cccc(OC)c2)c1C` belongs -8.1%.
`COc1ccccc1CC(=O)Nc1cccc(C)c1`: the displacement is -1.8%.
On to `COC(=O)C1=C(C)N(C)C(=O)/C1=C\c1ccc(Br)cc1`, for which the displacement is -10.3%.
On to `CS(=O)(=O)N(CC(=O)NCc1ccco1)c1ccc(Oc2ccccc2)cc1`, for which the displacement turned out to be 6.6%.
Consider `CCOc1cccc(=O)c2c(C)n(-c3ccc(C)cc3)c(C)c12`, for which the displacement stood at 10.2%.
In the case of `CCOC(=O)C1=C(C)NC2=C(C(=O)CC(C)(C)C2)C1c1ccc(OC(F)F)cc1` (stereo not drawn), the displacement is -0.2%.
On to `COc1ccc(C2/C(=C(\O)c3ccc([N+](=O)[O-])cc3)C(=O)C(=O)N2CCCCCC(=O)O)cc1OC` (stereo not drawn), for which the displacement is -26%.
Then `Cc1cccc(C(=O)N/C(=C/c2ccco2)C(=O)N2CCCC2)c1`, with 17.5%; and `CCOc1cc(C(=O)Nc2ccc3c(c2)OCCO3)cc(OCC)c1OCC`, with -7.7%.
Consider `Cc1ccc(-n2c(C)cc(C=O)c2C)cc1C`, for which the displacement is 13.4%.
To `Cc1occc1-c1nc(Cc2ccc(Cl)cc2)no1` belongs 3%.
Regarding `Cc1cccc(N/C(=N\c2nc(C)cc(C)n2)NC(=O)c2ccccc2)c1`, the displacement was determined as 2%.
Take `NC1=NC(=O)/C(=C/c2ccc(OC(=O)c3cccc([N+](=O)[O-])c3)cc2)S1`: the displacement was found to be 2.5%.
To `O=S(=O)(Nc1ccc(OCc2ccccc2)cc1)c1ccccc1` belongs 18.6%.
Then `CC(=O)N(Cc1ccc2c(c1)OCO2)C1CC(=O)N(c2ccc(Br)cc2)C1=O` (stereo not drawn), with 72.3%; and `O=C(Nc1ccccc1C(=O)O)c1cccs1`, with 1.4%.
Then `COc1ccc(C)cc1NC(=O)C(=O)NCc1ccccn1`, with -12.6%; and `CCN(CC)CCCNS(=O)(=O)c1ccccc1[N+](=O)[O-]`, with 11.6%.
In the case of `Cc1ccnc(NC(=O)COc2ccc(Cl)c(C)c2)c1`, the displacement came out at 1.5%.
On to `COc1cccc(NC(=O)COc2cccc(C)c2C)c1`, for which the displacement was -5.1%.
Then `CCOc1cc(C(=O)N2CCN(c3ccccc3OC)CC2)cc(OCC)c1OCC`, with -13.2%; and `O=C(N/N=C/c1cccs1)C(O)c1ccccc1` (stereo not drawn), with 4%.
Regarding `CCc1ccccc1NC(=O)C(=O)NCCc1ccc(OC)c(OC)c1`, the displacement is -5.5%.
To `COC1C(C)=CC(=O)N1Cc1ccccc1` (stereo not drawn) belongs 4.4%; to `COc1ccccc1/C=N/n1c(-c2ccccc2C)nc2ccccc2c1=O`, 10.6%; to `O=C(O)c1ccccc1C(=O)Nc1ccc(Cl)cn1`, -5.3%.
Regarding `COc1ccccc1C1/C(=C(\O)c2ccc([N+](=O)[O-])cc2)C(=O)C(=O)N1CCCCCC(=O)O` (stereo not drawn), the displacement is 6.3%.
To `Cc1cc(C)nc(NS(=O)(=O)c2ccc(NC(=S)NC(=O)c3ccc(Br)cc3)cc2)n1` belongs 2.6%.
To `COC(=O)C1=CNC=C(C(=O)OC)C1c1ccsc1` belongs 10%; to `Cc1ccc(N2C(=O)CSC2c2ccc(Br)cc2)cc1` (stereo not drawn), 8%.
Turning to `COc1cc(/C=N\n2c(C)nnc2C)ccc1OCc1ccccc1`, the displacement came out at 1.6%.
Regarding `O=C(Nc1ccccc1)N1CCOCC1`, the displacement is -1.1%.
To `CC1=CC(C)(C)Nc2ccc(OC(=O)c3ccccc3)cc21` belongs 2.5%; to `COc1ccc(-c2nc(-c3cc(OC)c(OC)cc3OC)[nH]c2-c2ccc(OC)cc2)cc1`, 0.4%; to `N/C(=N\OC(=O)c1ccco1)c1ccc(Cl)cc1`, -5.2%.
To `Cc1ccc(NC(=O)c2ccc(S(=O)(=O)N3CCCCC3)cc2)c(C(=O)c2ccccc2)c1` belongs 4.3%; to `Cn1c(O)c(N=NC(=S)NC2CCS(=O)(=O)C2)c2ccccc21` (stereo not drawn), 21.5%; to `Cc1ccc(C(C)(C)C)c(OCC(=O)O)c1`, -1.3%.
With `COC(=O)c1ccccc1NC(=O)c1cccc(F)c1`, the displacement is -3%.
In the case of `Cc1ccccc1NC(=O)c1c(NC(=O)C(Cl)(Cl)Cl)sc2c1CCC2`, the displacement amounted to 14.9%.
Then `Cc1ccc(Cn2c(NC(=O)c3ccc(Cl)cc3)nc3ccccc32)cc1`, with 7.8%; and `Cc1c(Cc2ccccc2)sc(NC(=O)c2ccccc2Br)c1C(N)=O`, with -12.7%.
With `COc1cccc(NC(=O)c2c(Cl)cccc2Cl)c1`, the displacement came to 8.7%.
`CN1CCN(c2nc3ccccn3c(=O)c2/C=C2\SC(=S)N(CC3CCCO3)C2=O)CC1` (stereo not drawn): the displacement is -51.2%.
Take `COc1ccc(N(CC(=O)Nc2ccc3ccccc3c2)S(=O)(=O)c2ccccc2)cc1Cl`: the displacement came out at 13.1%.
Then `COc1ccc(COC(=O)C2=C(C)NC(=O)CC2c2c(F)cccc2Cl)cc1` (stereo not drawn), with 5.9%; and `O=S(=O)(Nc1ccccc1CO)c1ccc2ccccc2c1`, with 4.9%.
Take `COc1cc(/C=C2\C(=O)NN(c3ccccc3)C2=O)ccc1OCC(=O)O`: the displacement worked out at 13.8%.
Then `CC(C)CC(=O)Nc1ccccc1C(=O)Nc1ccc(C(=O)O)cc1`, with 11.9%; and `CCOP(=O)(OCC)C(c1ccco1)N(C)C(=O)C1CC1` (stereo not drawn), with 2.3%; and `COc1ccc(Br)cc1C(=O)Nc1cccc2nsnc12`, with 1.2%.
Turning to `COc1cc(C(=O)O/N=C(/c2ccncc2)c2ccc([N+](=O)[O-])cc2)cc(OC)c1OC`, the displacement was -11.9%.
To `CC(C)(C)c1ccc(OCC(=O)Nc2ccc(F)cc2)cc1` belongs 0%; to `O=C(Nc1nc(-c2cc(Cl)ccc2Cl)cs1)C(Cl)Cl`, 12.8%; to `Cc1cc(C)nc(/N=C(/N)Nc2ccc3ccccc3c2)n1`, -10.7%.
Then `CCOC(=O)c1c(-c2ccc(Cl)cc2)csc1NC(=O)C1CC=CCC1C(=O)O` (stereo not drawn), with 0.7%; and `COC(=O)c1ccc(NC(NC(=O)c2ccc(OC)c(OC)c2)C(Cl)(Cl)Cl)cc1` (stereo not drawn), with -2%.
Then `CCOC(=O)CC1(c2ccccc2)SC(NC(C)=O)=NN1C(C)=O` (stereo not drawn), with -3.4%; and `COc1ccc(Oc2coc3cc(OC(=O)c4ccccc4Cl)ccc3c2=O)cc1`, with 7.4%; and `COc1ccc(C2/C(=C(/O)c3ccccc3)C(=O)C(=O)N2Cc2ccccc2)cc1` (stereo not drawn), with -16.2%.
As for `CC1(C)C2=C([N+](=O)[O-])CN(c3ccccc3)CN2C(C)(C)N1[O]`, the displacement came out at 3.9%.
Turning to `O=C1Nc2ccc(Br)c3cccc1c23`, the displacement was found to be 15.9%.
Take `N/C(=N\OC(=O)c1ccc(Br)cc1)c1ccccc1`: the displacement is -5.4%.
As for `Cc1cccc(C=Nc2cc(Cl)ccc2O)c1O`, the displacement amounted to 6.8%.
To `Cc1nccn1S(=O)(=O)c1ccc(Cl)c([N+](=O)[O-])c1` belongs 2.1%; to `CC(=O)C1=C(O)C(=O)N(CCN2CCNCC2)C1c1ccc(F)cc1` (stereo not drawn), -26.2%; to `Cc1ccc(C(=O)N2C(C)CCCC2C)cc1[N+](=O)[O-]` (stereo not drawn), -4%.
Regarding `O=C(NCc1ccccn1)c1cccc2ccccc12`, the displacement was -1.2%.
For `COc1ccc(CC(=O)NN2C(=O)c3ccccc3C2=O)cc1`, the displacement was 12.4%.
To `COC(=O)C(NC(=O)c1ccccc1)c1ccccc1` (stereo not drawn) belongs 3.9%.
For the compound `COc1ccc(/C=C2\SC(=S)N(CCCC(=O)NC34CC5CC(CC(C5)C3)C4)C2=O)cc1`, the displacement worked out at 4.2%.
Then `COc1ccc(NC(=O)c2cc(Cl)ccc2OC)c([N+](=O)[O-])c1`, with -3.1%; and `Cc1nc(=O)c(-c2ccccc2)c(C)n1CCO`, with -5.9%; and `Brc1ccc(/C=N/Nc2cc(N3CCOCC3)nc(N3CCOCC3)n2)cc1`, with 4.5%.
To `CCC(C(=O)Nc1ccc2c(c1)OCCO2)c1ccccc1` (stereo not drawn) belongs 2.3%; to `Cn1c(/N=C(\N)c2ccc([N+](=O)[O-])cc2)nc2ccccc21`, -19.4%; to `Cc1ccc(C)c(OCCCCN2CCCCC2)c1C`, 12.5%.
Then `COc1ccc(C(=O)NN=C2CCN(Cc3ccccc3)CC2)cc1OC`, with 7.2%; and `O=C(N/N=C/c1ccc(/C=N/NC(=O)c2ccc(Br)cc2)cc1)c1ccc(Br)cc1`, with -13.5%.
For `Cc1cccc(C)c1NC(=O)CSc1nnc(NC(=O)CN2CCOCC2)s1`, the displacement is -1%.
To `COc1cc(NC(C)=O)c(OC)cc1N=NC1=C(O)CC(C)(C)CC1=O` belongs -2.3%; to `CCOC(=O)/C(C(C)=O)=C(\C=C\N(C)C)N(C)C`, -5%; to `N#Cc1cc2[nH]c3ccccc3c2n(-c2ccc([N+](=O)[O-])cc2)c1=O`, -12.2%.
To `O=C(CCCC(=O)OCC(F)(F)C(F)F)Nc1cccc(F)c1` belongs -0.4%; to `Nc1nonc1-n1nnc(C(=O)N/N=C/c2ccc(O)cc2)c1-c1ccccc1`, -12.2%.
Then `O=C(COc1ccc(Cl)cc1Br)N/N=C/c1cc(Cl)cc([N+](=O)[O-])c1O`, with 35.7%; and `O=C(CC(C(=O)O)N1CCOCC1)c1ccccc1` (stereo not drawn), with -6.5%.
Consider `CCOc1cc(C=C2C(=O)c3ccccc3C2=O)ccc1OCc1ccc(Cl)cc1Cl`, for which the displacement came out at 2.3%.
Then `O=C(CCCN1C(=O)c2cccc3cccc(c23)C1=O)NCc1cccnc1`, with 6.9%; and `NNC(=O)COc1cccc2ccccc12`, with 3.2%.
Then `O=C(c1ccc(N2CCN(C(=O)c3c(F)cccc3F)CC2)cc1)c1cccc(F)c1`, with -6.6%; and `OCC(O)COC(c1ccccc1)(c1ccccc1)c1ccccc1` (stereo not drawn), with 7.5%; and `C#Cc1cccc(NC(=O)c2cc(C(=O)Nc3cccc(C#C)c3)cc(N3C(=O)c4ccccc4C3=O)c2)c1`, with -1.8%.
Then `CC1(C)OC2OC(COC(=O)c3ccccc3Cl)C3OC(C)(C)OC3C2O1` (stereo not drawn), with 9.1%; and `CCc1nnc(NS(=O)(=O)c2ccc(N/C=C/C(=O)c3ccc(OC)cc3OC)cc2)s1`, with 12%; and `COc1cc(C=C2C(=O)NC(=O)NC2=O)cc(Br)c1OCc1ccccc1`, with 5.1%.
For the compound `COc1cc(/C=C2/SC(=S)N(CC(=O)Nc3ccccn3)C2=O)cc(OC)c1OC`, the displacement was 15.6%.
To `O=C(/C=C/c1ccc(F)cc1)Nc1cccc2ncccc12` belongs 20.5%.
Turning to `COc1cc(C2Nc3ccccc3C(=O)N2Cc2ccccc2)ccc1O` (stereo not drawn), the displacement is -0.6%.
On to `O=C(Nc1ccc2ccccc2c1)c1cccc(NC(=O)c2cccs2)c1`, for which the displacement is 4.4%.
To `Cc1ccc(NC(=O)CC2CS(=O)(=O)CC2CC(=O)Nc2ccc(C)c(C)c2)cc1C` (stereo not drawn) belongs -13%.
Then `COc1ccc(-n2nc3cc(C)c(NC(=O)c4cc5ccccc5o4)cc3n2)cc1`, with 2.4%.
With `COc1ccc(C2CC(=O)C3=C(C2)Nc2ccccc2NC3c2ccc(OCc3ccccc3)cc2)cc1` (stereo not drawn), the displacement is -4.9%.
